Assay results taken from the supplement of paper PMC4604168 (melanoma cell lines).
The list shows a part of the results. Many values rest on one well or one pass, so single values are uncertain.

How the values were obtained:
Experiment in all cases: cell count relative to DMSO control; melanoma cells; higher = more viable cells
Conditions in all cases: library dose: low library concentration; 72 h
MZ2-MEL = system: MZ2-MEL
MeWo = system: MeWo
RPMI7951 = system: RPMI7951
RVH-421 = system: RVH-421
SkMel28 = system: SkMel28
SkMel2 = system: SkMel2
SkMel30 = system: SkMel30
SkMel5 = system: SkMel5
UACC257 = system: UACC257
UACC62 = system: UACC62
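Note: cell number obtained by counting DAPI-stained nuclei in high-throughput microscope images with image analysis software, screen run in 1,536-well plates.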

| Compound | cell count (MZ2-MEL) | cell count (MeWo) | cell count (RPMI7951) | cell count (RVH-421) | cell count (SkMel28) | cell count (SkMel2) | cell count (SkMel30) | cell count (SkMel5) | cell count (UACC257) | cell count (UACC62) |
| --- | --- | --- | --- | --- | --- | --- | --- | --- | --- | --- |
| Clc1ccc(Nc2nnc(Cc3ccncc3)c3ccccc23)cc1 [vatalanib] + CCN(CC)CCCCNc1ncc2cc(-c3cc(OC)cc(OC)c3)c(NC(=O)NC(C)(C)C)nc2n1 [PD173074] (first compound 2 µM, partner dose 0.1 µM) | 93.4% | 103% | 89.9% | 90.1% | 96.7% | 104% | 122% | 98.3% | 89.4% | 100% |
| C#Cc1cccc(Nc2ncnc3cc(OCCOC)c(OCCOC)cc23)c1 [erlotinib] + Cc1cc(N2CCOCC2)cc2[nH]c(-c3c(NC[C@@H](O)c4cccc(Cl)c4)cc[nH]c3=O)nc12 [BMS536924] (first compound 0.8 µM, partner dose 0.2 µM) | 94.9% | 87.2% | 99.6% | 93.8% | 87.9% | 91.8% | 73.2% | 103% | 90.4% | 90.3% |
| O=C(CCCCCCC(=O)Nc1ccccc1)NO [vorinostat] + COc1cc(Nc2ncc(F)c(Nc3ccc4c(n3)NC(=O)C(C)(C)O4)n2)cc(OC)c1OC [Tamatinib] (first compound 0.08 µM, partner dose 0.4 µM) | 94.8% | 93% | 89.1% | 104% | 84.9% | 97.8% | 98.9% | 87.6% | 71.7% | 74.1% |
| Nc1cccc2c1CN(C1CCC(=O)NC1=O)C2=O (stereo not given) [lenalidomide] + CC1(C)NC(=O)N(c2ccc([N+](=O)[O-])c(C(F)(F)F)c2)C1=O [nilutamide] (first compound 1 µM, partner dose 1 µM) | 101% | 100% | 119% | 87.5% | 99.4% | 93.9% | 107% | 93.1% | 115% | 99.1% |
| OCc1c[nH]c2ccccc12 [Indole-3-carbinol] + Cn1cncc1[C@@](N)(c1ccc(Cl)cc1)c1ccc2c(c1)c(-c1cccc(Cl)c1)cc(=O)n2C [tipifarnib] (first compound 0.8 µM, partner dose 0.01 µM) | 98.5% | 89.6% | 94.9% | 89.1% | 87.5% | 91.2% | 97.4% | 84.3% | 57.9% | 63.5% |
| Nc1cccc2c1CN(C1CCC(=O)NC1=O)C2=O (stereo not given) [lenalidomide] + C[C@@H]1CCN(C(=O)CC#N)C[C@@H]1N(C)c1ncnc2[nH]ccc12 [CP690550] (first compound 1 µM, partner dose 1 µM) | 103% | 101% | 96.7% | 97.2% | 95.4% | 94.7% | 94.2% | 108% | 102% | 111% |
| Clc1ccc(Nc2nnc(Cc3ccncc3)c3ccccc23)cc1 [vatalanib] + Cn1cncc1[C@@](N)(c1ccc(Cl)cc1)c1ccc2c(c1)c(-c1cccc(Cl)c1)cc(=O)n2C [tipifarnib] (first compound 2 µM, partner dose 0.01 µM) | 94.7% | 88.8% | 71.3% | 65.6% | 79% | 80.5% | 86.5% | 75.6% | 62.9% | 62.5% |
| Nc1cccc2c1CN(C1CCC(=O)NC1=O)C2=O (stereo not given) [lenalidomide] + CO[C@@H]1[C@H](N(C)C(=O)c2ccccc2)C[C@H]2O[C@]1(C)n1c3ccccc3c3c4c(c5c6ccccc6n2c5c31)C(=O)NC4 [Midostaurin] (first compound 1 µM, partner dose 0.08 µM) | 96.4% | 89% | 109% | 85.4% | 95.6% | 84.3% | 108% | 87.9% | 75.4% | 99.9% |
| Cn1c(Nc2ccc(C(F)(F)F)cc2)nc2cc(Oc3ccnc(-c4ncc(C(F)(F)F)[nH]4)c3)ccc21 + Cc1ccc(NC(=O)c2cccc(N(C)C)c2)cc1NC(=O)c1ccc(O)cc1 [ZM336372] (first compound 0.08 µM, partner dose 2 µM) | 59.8% | 67.4% | 62.1% | 89.5% | 57.8% | 81.9% | 43.3% | 69.1% | 32.8% | 45.8% |
| C#Cc1cccc(Nc2ncnc3cc(OCCOC)c(OCCOC)cc23)c1 [erlotinib] + CO[C@@H]1[C@H](N(C)C(=O)c2ccccc2)C[C@H]2O[C@]1(C)n1c3ccccc3c3c4c(c5c6ccccc6n2c5c31)C(=O)NC4 [Midostaurin] (first compound 0.8 µM, partner dose 0.08 µM) | 96.9% | 75.4% | 86.6% | 79.8% | 96.7% | 83.6% | 88.4% | 96.7% | 79.8% | 104% |
| COCC[n+]1c2c(n(Cc3cnccn3)c1C)C(=O)c1ccccc1C2=O + COc1cc2c(Oc3ccc4[nH]c(C)cc4c3F)ncnc2cc1OCCCN1CCCC1 [cediranib] (first compound 0.0004 µM, partner dose 0.4 µM) | 57.2% | 82.1% | 95.5% | 97% | 101% | 81.3% | 96% | 52.2% | 78.4% | 78.5% |
| OCc1c[nH]c2ccccc12 [Indole-3-carbinol] + COc1ccc(-c2ccc3c(N4CCOCC4)nc(N4C[C@@H](C)O[C@@H](C)C4)nc3n2)cc1CO [KU0063794] (first compound 0.8 µM, partner dose 0.02 µM) | 92.6% | 102% | 91% | 79% | 106% | 97.9% | 90.3% | 95.1% | 97.6% | 107% |
| Nc1cccc2c1CN(C1CCC(=O)NC1=O)C2=O (stereo not given) [lenalidomide] + Cc1ccc(NC(=O)c2cccc(N(C)C)c2)cc1NC(=O)c1ccc(O)cc1 [ZM336372] (first compound 1 µM, partner dose 2 µM) | 84.4% | 99.4% | 98.4% | 96.9% | 78.5% | 108% | 80.2% | 99.8% | 69.9% | 106% |
| C#Cc1cccc(Nc2ncnc3cc(OCCOC)c(OCCOC)cc23)c1 [erlotinib] + C=CCn1c(=O)c2cnc(Nc3ccc(N4CCN(C)CC4)cc3)nc2n1-c1cccc(C(C)(C)O)n1 [MK1775] (first compound 0.8 µM, partner dose 0.02 µM) | 93.3% | 93.4% | 88.6% | 84.7% | 77% | 96.6% | 98.6% | 82.4% | 65.9% | 87.3% |
| Cn1c(Nc2ccc(C(F)(F)F)cc2)nc2cc(Oc3ccnc(-c4ncc(C(F)(F)F)[nH]4)c3)ccc21 + COc1cc2c(Oc3ccc4[nH]c(C)cc4c3F)ncnc2cc1OCCCN1CCCC1 [cediranib] (first compound 0.08 µM, partner dose 0.4 µM) | 70.7% | 68.8% | 57.9% | 82.3% | 66.9% | 80% | 55.8% | 69.9% | 46.1% | 49% |
| COCC[n+]1c2c(n(Cc3cnccn3)c1C)C(=O)c1ccccc1C2=O + Cc1ccc(NC(=O)c2cccc(N(C)C)c2)cc1NC(=O)c1ccc(O)cc1 [ZM336372] (first compound 0.0004 µM, partner dose 2 µM) | 33% | 110% | 72.7% | 94.8% | 103% | 82.8% | 89.2% | 59% | 91.2% | 95.3% |
| Clc1ccc(Nc2nnc(Cc3ccncc3)c3ccccc23)cc1 [vatalanib] + NCC(=O)Nc1ccc(-n2nc(C(F)(F)F)cc2-c2ccc3c(ccc4ccccc43)c2)cc1 [OSU03012] (first compound 2 µM, partner dose 1 µM) | 77.2% | 55.1% | 86.6% | 87.9% | 90.6% | 68.6% | 46.1% | 89% | 87.2% | 95.1% |
| Clc1ccc(Nc2nnc(Cc3ccncc3)c3ccccc23)cc1 [vatalanib] + Cc1cc([N+](=O)[O-])ccc1NS(=O)(=O)c1cc(Cl)ccc1Cl [FH535] (first compound 2 µM, partner dose 1 µM) | 91.4% | 89.2% | 90.2% | 65.4% | 90.8% | 105% | 89.1% | 76.5% | 88.7% | 98.6% |
| Cn1c(Nc2ccc(C(F)(F)F)cc2)nc2cc(Oc3ccnc(-c4ncc(C(F)(F)F)[nH]4)c3)ccc21 + NC(=O)Nc1cc(-c2cccc(F)c2)sc1C(=O)N[C@H]1CCCNC1 [AZD7762] (first compound 0.08 µM, partner dose 0.02 µM) | 93.3% | 69.2% | 47.7% | 91% | 66.8% | 87.5% | 55.2% | 74.7% | 54.2% | 56.8% |
| Clc1ccc(Nc2nnc(Cc3ccncc3)c3ccccc23)cc1 [vatalanib] + CN(NC(=O)CC(=O)NN(C)C(=S)c1ccccc1)C(=S)c1ccccc1 [STA4783] (first compound 2 µM, partner dose 0.006 µM) | 93.1% | 95.9% | 86.1% | 122% | 87.6% | 92.5% | 109% | 84.7% | 109% | 90.7% |
| OCc1c[nH]c2ccccc12 [Indole-3-carbinol] + O=C(Nc1ccccc1)c1cc([N+](=O)[O-])ccc1Cl [GW9662] (first compound 0.8 µM, partner dose 2 µM) | 95.7% | 99.3% | 104% | 105% | 89.1% | 101% | 105% | 107% | 100% | 84.2% |
| C#Cc1cccc(Nc2ncnc3cc(OCCOC)c(OCCOC)cc23)c1 [erlotinib] + O=C(O)c1ccc(-c2c[nH]c3ncc(-c4ccccc4)cc23)cc1C1CCCC1 [GSK650394] (first compound 0.8 µM, partner dose 0.16 µM) | 86.7% | 85.2% | 107% | 113% | 90.9% | 86.9% | 85.4% | 86% | 74.2% | 93.1% |
| COCC[n+]1c2c(n(Cc3cnccn3)c1C)C(=O)c1ccccc1C2=O + O=C(Nc1cccc(Cl)c1)Nc1ncc(CCNc2ncnc3ccsc23)s1 [SNS314] (first compound 0.0004 µM, partner dose 0.0008 µM) | 40.9% | 87.8% | 63% | 84.7% | 95.1% | 90% | 74% | 59.8% | 70.9% | 104% |
